According to patent US20100330072A1 (published 2010):

T1: recombinant mature myostatin (human, produced in E. coli) (human) (UniProt O14793)
T1 sequence (looked up): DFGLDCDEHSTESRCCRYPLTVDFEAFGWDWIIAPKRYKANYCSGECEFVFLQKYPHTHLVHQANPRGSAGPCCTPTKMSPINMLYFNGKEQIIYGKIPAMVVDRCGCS

T2: recombinant mature myostatin (human, produced in E. coli) (human, UniProt O14793 267-375)
T2 construct: mature; also called GDF-8
T2 sequence (looked up): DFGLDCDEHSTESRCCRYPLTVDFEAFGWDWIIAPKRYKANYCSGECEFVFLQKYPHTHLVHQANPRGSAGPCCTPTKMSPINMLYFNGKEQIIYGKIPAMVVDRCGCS


Experiments:
[1] = target: T1, recombinant mature myostatin (human, produced in E. coli) (human); test: cell-based or functional assay
[2] = target: T2, recombinant mature myostatin (human, …); test: BIAcore, myostatin immobilized on CM5 chip

Binder	IC50 (nM), C2C12 pMARE-luc assay [1]	Kd [2]
Myostatin-TN12-34 peptibody (Fc fusion) MAHWCEQGPWRYGNICMAYGGGGG[letters of human IgG1 Fc left out]GGGGGAHWCEQGPWRYGNICMAY	30 nM	
Myostatin-2xTN8-19 kc peptibody (Fc fusion, Conflict not resolved; also called 2xmTN8-19 (parent)) [letters of human IgG1 Fc left out]GSGSATGGSGSTASSGSGSATGQGHCTRWPWMCPPYGSGSATGGSGSTASSGSGSATGQGHCTRWPWMCPPY		~29 nM
Myostatin-Linear-20 peptibody (Fc fusion) MYREMSMLEGLLDVLERLQHYGGGGG[letters of human IgG1 Fc left out]	11 nM	

The next lines start with the values.

IC50 (nM), C2C12 pMARE-luc assay [1]	Kd [2]	Binder
90.2 nM		mL2-7 peptibody (Fc fusion) MGAQRMEMLESLFELLKEIVPMSKAGLEGGGGG[letters of human IgG1 Fc left out]
106 nM		mL2-9 peptibody (Fc fusion) MGAQQMELLDSLFELLKEIVPKSQPALEGGGGG[letters of human IgG1 Fc left out]
